Over roughly 33,000 sequences, “E-score (-0.5 to 0.5)” has its median near -0.041; the highest 2% begin near 0.37. The list shows a part of the results.
Biological target: T1, Ecm22 (UniProt Q05958)
T1 sequence: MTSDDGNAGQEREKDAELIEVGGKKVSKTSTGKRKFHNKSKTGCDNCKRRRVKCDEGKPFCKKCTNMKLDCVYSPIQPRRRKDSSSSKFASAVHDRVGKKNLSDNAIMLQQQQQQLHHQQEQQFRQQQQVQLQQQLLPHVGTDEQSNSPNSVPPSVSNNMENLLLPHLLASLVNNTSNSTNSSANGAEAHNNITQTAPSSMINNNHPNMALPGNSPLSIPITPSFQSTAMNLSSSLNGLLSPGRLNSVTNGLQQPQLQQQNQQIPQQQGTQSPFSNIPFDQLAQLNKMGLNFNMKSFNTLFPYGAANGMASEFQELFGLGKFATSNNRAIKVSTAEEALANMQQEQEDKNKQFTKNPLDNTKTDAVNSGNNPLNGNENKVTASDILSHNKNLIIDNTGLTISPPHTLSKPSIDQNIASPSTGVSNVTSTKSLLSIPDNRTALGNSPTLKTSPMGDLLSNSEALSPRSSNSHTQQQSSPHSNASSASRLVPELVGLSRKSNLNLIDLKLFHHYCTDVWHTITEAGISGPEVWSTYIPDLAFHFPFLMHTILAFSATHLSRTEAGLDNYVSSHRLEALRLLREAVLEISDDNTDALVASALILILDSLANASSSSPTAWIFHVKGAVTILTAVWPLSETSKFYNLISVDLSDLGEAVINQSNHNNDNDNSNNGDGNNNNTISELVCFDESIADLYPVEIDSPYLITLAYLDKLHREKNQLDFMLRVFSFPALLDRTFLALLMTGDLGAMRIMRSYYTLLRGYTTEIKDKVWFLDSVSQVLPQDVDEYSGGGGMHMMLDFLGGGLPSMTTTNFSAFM
Assay: PBM E-score (8-mer binding enrichment) (E-score (-0.5 to 0.5)); higher = stronger / more preferred TF binding; most listed sequences are background and not binding sites
Settings: protein concentration: 200 nM; construct: GST-full length
Summary of the method: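 Full-length yeast transcription factors or their DNA-binding domains, GST-tagged and expressed with PURExpress, were applied at about 100-200 nM to universal all-10-mer Agilent arrays. These arrays had been made double-stranded by primer extension on fresh or once-stripped slides. Detection used fluorescent anti-GST, normalisation used masliner, and E-scores for ungapped eight-base words pooled with reverse complements came from the Universal PBM Analysis Suite.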

Sequence	PBM E-score
CACGAGCG	0.201
GACAAAGA	0.0201
GGCACAAA	-0.134
CAGTGTAA	-0.0725
GCCTTCCC	-0.256
TCGTACGA	0.469
GCATGGCC	-0.172
ATATAATC	-0.114
AACCACGG	-0.123
CCCAGCGG	-0.0361
ATTGGGCC	-0.0746
CGGCATTA	0.129
AGGAGGAC	-0.176
CCGCTCTA	-0.078
CTGGGGGA	-0.171
CAATGGGG	-0.225
CATAGTTC	0.0214
CGAACACC	0.0544
AATGAACG	0.319
AATACGAG	0.457
AACCTACC	-0.0947
AACCATCC	-0.148
CAGGCTCC	-0.34
AACAAAAT	-0.124
CAGCCCAC	-0.157

Sequence	PBM E-score
AGCTAGGG	-0.323
ACTCTCGA	-0.0775
CGTATTAA	0.331
ACCCTATG	-0.0759
ACAGTCCG	0.00967
GCGGGGCC	-0.0825
ACTATCGC	0.0663
CCCGGCCC	-0.183
TATAAAGA	-0.209
ACTAAGTC	-0.146
CTTCTTAC	0.0182
GCCAATAA	-0.0882
AAAGCTGT	-0.108
CTCAACCA	-0.258
CGACCCCA	-0.0197
ACGGTTGG	0.0347
ACCAGTAC	0.0332
CACGCACC	-0.137
ACTAGGCT	-0.0611
CTGTCTGC	-0.267
CCTTCTAG	-0.158
AGGCTAGA	-0.154
ATTCGCTA	0.158
AAACCGTA	0.27
AATCATCC	0.0233

Sequence	PBM E-score
AGGGCGCC	-0.161
CATACGGC	0.3
GATATAGA	0.0512
CTCATCAA	-0.109
CGATAGCA	0.193
ATGATCTA	0.0288
TAAACCTA	0.00328
TCCGTAGA	-0.0285
CAGGCTTA	-0.245
CTGGGTAC	0.174
AGTGGAAC	-0.0542
ACGGTAGG	-0.0294
AGGTCACT	-0.061
AGCGAACC	0.18
TACCGAGA	0.155
CAGACCAC	-0.238
GACTCAGA	-0.188
AATTTGAC	0.0442
AAGCCCCG	-0.152
TTGAGCAA	-0.0756
GAGTACGC	-0.0338
GCAGAGAC	-0.357
ACTGCATC	0.0594
CGGTTAAA	0.18
GAGGTTGA	-0.0744

Sequence	PBM E-score
ATTATAAA	0.172
CCTAGCGA	-0.192
AGGGAGGC	0.0703
ACTCGCGG	0.0816
ATGTCACG	0.0203
CGATGATC	0.154
AAGACGAG	0.108
GAGGCAAA	-0.073
GACGGTGC	0.0887
AGCGTTGA	-0.00877
GTGGCCAC	-0.0328
ATGAGGTG	-0.127
TGGACACA	-0.16
GCAGGGTA	-0.187
AATCCCTG	-0.196
ATCGCTCG	0.195
ACGATAAC	0.291
ACTACACT	-0.0856
TTTATAAA	0.0727
ACTGGAAC	0.141
AGTCGATG	0.0205
AAGCCAGT	-0.0794
CAGCGAAG	-0.148
GACCTCAA	-0.231
CCCACCGC	0.0306

Sequence	PBM E-score
ATCTCCTG	0.0724
GCTCGAAA	-0.0416
ATTGTTCG	0.26
GCACGCCA	-0.225
CAACCGAG	0.265
GCGGCGCC	0.0346
TCTCTAAA	-0.2
ATAGAGGC	-0.0274
CCATATGA	-0.232
ATTCAGGA	-0.0146
AGTATCGC	0.148
CTTCACGA	-0.139
GCATGGTA	-0.0591
AAAGAACT	-0.0427
CTTTTCGA	-0.00257
GTATCGAA	0.161
TATTCGCA	0.162
CGAACAAA	0.2
TCTGCCCA	-0.226
AGTGCGAT	0.136
GGTTCAGA	-0.172
GGTTTTGA	-0.124
CTTTTGGA	-0.213
AGAGGACC	-0.0852
TCAATAAA	0.00418

Sequence	PBM E-score
CCGATACC	0.0916
TCCAGAGA	-0.332
CCCTCACA	-0.178
ACCATCTC	0.0104
CCTCCTGC	-0.32
CGCATTAA	0.0561
AACCTTGG	-0.202
CAACCCAG	-0.252
CTGGACAA	-0.161
CGACAAAA	0.149
ACCACCGA	0.0206
AATCGGTA	0.211
AGTTGGAA	-0.103
TCACCTAA	-0.0233
GAATGTGA	0.0145
CATTCGCA	0.0842
GAGAGCTC	-0.0487
AGATCCAG	-0.136
ATCAGTTC	0.145
CTCCACTA	-0.0503
AATCGCGT	0.12
AGTCGCAA	0.156
ATTAATAG	-0.0113
CCCACCAA	0.00378
AAGGCCCT	-0.24

Sequence	PBM E-score
CTCAAAGC	-0.119
ACCTTAGC	-0.242
CTAGAACA	-0.0457
CCGTAAGA	0.164
AACCCCGA	-0.202
TGAGCGAA	0.268
GGGCCCCC	-0.299
AGCGTACG	0.351
AGGGTCAT	-0.101
AACGTCGT	0.37
GTGTAGTA	0.0105
CTGGCTGA	-0.173
AGGTAGGA	-0.223
GACCTAAA	0.202
ACACGATA	0.152
GAAAGCAA	0.156
TGGTCCAA	-0.233
CTAGGGAG	-0.147
AAGTGCCA	-0.157
GTTGTGGA	0.0197
GGATGCAA	-0.0722
CGAAAAAC	0.205
